Laboratory results: patent US6881740B1, “Pharmaceutical agents” (Monash University, priority 1998, dated 2005)

Test system: voltage-sensitive sodium channels (rat brain homogenates)
Conditions: approximate IC50 from dose response curves, 30 minutes at 37° C., scorpion toxin present

Work on OC(Cc1cc(N2CCCC2)nc(N2CCCC2)n1)c1cccc(OC(F)(F)F)c1 (stereo not shown) [Compound 17, 6-[2-hydroxy-2-(3-trifluoromethoxyphenyl)ethyl]-2,4-di-N-pyrrolidinylpyrimidine] yielded an IC50 of 420 nM.
